Among all 310,000 compounds or so, about 14,000 (4.5%) showed an effect of 50% or more. Effects have a minus sign here. The list shows a part of the results.
Molecular target: human ether-à-go-go-related gene (hERG) potassium channel (human, UniProt Q12809)
Test: primary screen, population patch clamp on CHO cells stably expressing hERG
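Further: peak tail current of the secondary pulse compared with the same well before compound.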

human ether-à-go-go-related gene (hERG) potassium channel, sequence (Q12809 whole entry, looked up): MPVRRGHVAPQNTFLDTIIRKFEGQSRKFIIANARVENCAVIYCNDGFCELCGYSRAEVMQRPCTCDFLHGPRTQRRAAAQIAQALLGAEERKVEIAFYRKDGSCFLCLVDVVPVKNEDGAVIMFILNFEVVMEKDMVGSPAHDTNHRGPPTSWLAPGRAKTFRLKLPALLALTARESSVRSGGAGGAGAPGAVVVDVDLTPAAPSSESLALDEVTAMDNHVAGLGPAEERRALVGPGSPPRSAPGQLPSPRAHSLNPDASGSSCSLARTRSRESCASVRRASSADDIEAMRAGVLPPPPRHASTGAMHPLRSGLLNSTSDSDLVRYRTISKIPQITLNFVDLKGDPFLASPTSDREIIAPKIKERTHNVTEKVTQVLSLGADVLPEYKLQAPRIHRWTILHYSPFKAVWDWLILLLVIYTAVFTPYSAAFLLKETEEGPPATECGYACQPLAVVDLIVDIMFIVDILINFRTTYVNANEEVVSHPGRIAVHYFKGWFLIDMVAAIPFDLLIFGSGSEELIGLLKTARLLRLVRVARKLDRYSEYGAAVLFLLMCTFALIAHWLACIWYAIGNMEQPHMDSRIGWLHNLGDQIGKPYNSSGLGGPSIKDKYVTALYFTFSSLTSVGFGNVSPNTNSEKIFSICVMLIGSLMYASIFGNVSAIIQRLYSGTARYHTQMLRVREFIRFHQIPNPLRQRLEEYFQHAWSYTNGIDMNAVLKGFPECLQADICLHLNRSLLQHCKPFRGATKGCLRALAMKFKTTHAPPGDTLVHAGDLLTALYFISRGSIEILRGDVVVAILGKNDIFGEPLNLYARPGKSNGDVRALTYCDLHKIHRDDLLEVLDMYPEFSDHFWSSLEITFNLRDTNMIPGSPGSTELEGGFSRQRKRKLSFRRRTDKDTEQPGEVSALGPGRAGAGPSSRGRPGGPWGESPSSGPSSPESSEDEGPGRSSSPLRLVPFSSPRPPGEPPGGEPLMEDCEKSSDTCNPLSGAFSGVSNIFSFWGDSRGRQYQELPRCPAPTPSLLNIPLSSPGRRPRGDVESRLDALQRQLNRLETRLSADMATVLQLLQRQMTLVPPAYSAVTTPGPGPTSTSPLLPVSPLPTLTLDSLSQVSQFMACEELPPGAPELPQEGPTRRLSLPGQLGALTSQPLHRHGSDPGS

Going from `O=C(CSc1nc2ccccc2o1)Nc1ccc(N2CCOCC2)cc1` to `O=C(Cc1ccccc1)Nc1cc(C(=O)c2ccccc2)ccc1N1CCOCC1`, the “hERG current change (%, negative = inhibition) at 10uM” value falls from -4.24% to -28%.

First: C=CCn1c(O)c(/C(C)=N/NC(=S)Nc2ccccc2)c(=O)[nH]c1=O
Second: Cc1ccc(NC(=O)Cn2c(O)c(N=NC(=O)c3ccncc3)c3ccccc32)cc1
The “hERG current change (%, negative = inhibition) at 10uM” value of the first is higher: 22.4% for the first, 19.5% for the second.

Compared with `Cc1cc(C(=O)NCCN2CCOCC2)ccc1[N+](=O)[O-]`, `CCS(=O)(=O)N1CCC(C(=O)NCCCN2CCN(c3ccccc3F)CC2)CC1` is lower in “hERG current change (%, negative = inhibition) at 10uM” value: 19.2% for the first, -16.3% for the second.

Compared with `CCOC(=O)c1ccc2ncc(C(=O)OCC)c(NCc3ccco3)c2c1`, `O=C(CSc1ccc(-c2ccco2)nn1)NCc1ccccc1Cl` is lower in “hERG current change (%, negative = inhibition) at 10uM” value: -24.7% for the first, -49.1% for the second.

Compared with `CCOC(=O)CNc1c(N2CCN(c3ccccn3)CC2)c(=O)c1=O`, `CCOC(=O)C1CCN(C(=O)CSc2nc3ncccc3[nH]2)CC1` is higher in “hERG current change (%, negative = inhibition) at 10uM” value: 5.74% for the first, 7.58% for the second.

Going from `Cc1ccc(S(=O)(=O)N(C)c2ccc(C(=O)O)cc2)cc1` to `Cc1ccc(-n2c(C)cc(C(=O)NS(=O)(=O)c3ccc(C)cc3)c2C)cc1`, the “hERG current change (%, negative = inhibition) at 10uM” value falls from -17.1% to -30.8%.

First: O=C(CCC(=O)OCC(=O)c1ccccc1)NC1CCCCC1
Second: OCC1(Cc2ccccc2)CCN(Cc2ccccn2)CC1
The “hERG current change (%, negative = inhibition) at 10uM” value of the first is higher: 6.44% for the first, -9.51% for the second.

Going from `Cc1cccc(NC(=O)C2CC(=O)n3cnnc3S2)c1` (stereo not shown) to `Cc1nc2c3ccccc3n(CC#N)c(=O)n2n1`, the “hERG current change (%, negative = inhibition) at 10uM” value falls from 0.365% to -0.213%.

Going from `COCCCN1C(=O)C(=O)/C(=C(/O)c2ccc(OC)cc2)C1c1cccc(OC)c1` (stereo not shown) to `COc1cccc([C@@H]2Oc3ccc(OC)cc3C(=O)[C@H]2O)c1`, the “hERG current change (%, negative = inhibition) at 10uM” value rises from 1.51% to 16.8%.

Going from `COc1ccc(CNC(=O)Nc2cccs2)cc1OC` to `CC(C)OC(=O)CCCN1C(=O)c2ccc(N)cc2C1=O`, the “hERG current change (%, negative = inhibition) at 10uM” value falls from 7.21% to -11.2%.

Going from `CSCCC1NC2(C(=O)Nc3c2ccc(Cl)c3C)[C@@H]2C(=O)N(C3CCCC3)C(=O)[C@H]12` (stereo partly shown) to `CCOC(=O)C(CSCC(=O)c1ccc(Cl)cc1Cl)NC(=O)OC(C)(C)C` (stereo not shown), the “hERG current change (%, negative = inhibition) at 10uM” value rises from -20.6% to -13.1%.

Compared with `c1ccc(CSc2ncnc3c2cnn3-c2ccccc2)cc1`, `COc1ccc(-n2c(SCc3nnc(-c4ccccc4)o3)nnc2-c2ccccc2)cc1` is lower in “hERG current change (%, negative = inhibition) at 10uM” value: 2.68% for the first, -29.5% for the second.

For `OCCOc1ccc(C2=NCCO2)cc1`, the “hERG current change (%, negative = inhibition) at 10uM” value was -23.3%.

Reference: PMC4336329 (PLoS ONE, 2015)
